Measurements from the supplement of paper PMC4604168 (melanoma cell lines).
The list shows a part of the results. Single values are uncertain, as repeats are few or missing.

Legend:
Experiment in all cases: cell count relative to DMSO control; melanoma cells; higher = more viable cells
Conditions in all cases: library dose: standard library concentration; 72 h
G361 = system: G361
IPC-298 = system: IPC-298
IST-MEL1 = system: IST-MEL1
LB2518-MEL = system: LB2518-MEL
LOXIMVI = system: LOXIMVI
MEL-HO = system: MEL-HO
MZ2-MEL = system: MZ2-MEL
MeWo = system: MeWo
RPMI7951 = system: RPMI7951
RVH-421 = system: RVH-421
SkMel28 = system: SkMel28
SkMel2 = system: SkMel2
SkMel30 = system: SkMel30
SkMel5 = system: SkMel5
UACC257 = system: UACC257
UACC62 = system: UACC62
WM115 = system: WM115
WM1716 = system: WM1716
WM1745 = system: WM1745
WM3526 = system: WM3526
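Note: cells treated in 1,536-well plates, then fixed and DAPI-stained, with nuclei counted from automated high-throughput microscope images.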

Row | SMILES | cell count (G361) [%] | cell count (IPC-298) [%] | cell count (IST-MEL1) [%] | cell count (LB2518-MEL) [%] | cell count (LOXIMVI) [%] | cell count (MEL-HO) [%] | cell count (MZ2-MEL) [%] | cell count (MeWo) [%] | cell count (RPMI7951) [%] | cell count (RVH-421) [%] | cell count (SkMel28) [%] | cell count (SkMel2) [%] | cell count (SkMel30) [%] | cell count (SkMel5) [%] | cell count (UACC257) [%] | cell count (UACC62) [%] | cell count (WM115) [%] | cell count (WM1716) [%] | cell count (WM1745) [%] | cell count (WM3526) [%]
1 | CC1(C)NC(=O)N(c2ccc([N+](=O)[O-])c(C(F)(F)F)c2)C1=O [nilutamide] + O=C(Oc1ccc([N+](=O)[O-])cc1)N1CCC(C(O)(c2ccc3c(c2)OCO3)c2ccc3c(c2)OCO3)CC1 [JZL184] (first compound 5 µM, partner dose 5 µM) | 115 | 99.1 | 115 | 118 | 94.9 | 119 | 105 | 104 | 151 | 125 | 127 | 102 | 98 | 106 | 96.8 | 107 | 113 | 116 | 130 | 96.2
2 | Cn1cnc2c(F)c(Nc3ccc(Br)cc3Cl)c(C(=O)NOCCO)cc21 [selumetinib] + C[C@]12O[C@H](C[C@]1(O)CO)n1c3ccccc3c3c4c(c5c6ccccc6n2c5c31)CNC4=O [Lestaurtinib] (first compound 0.075 µM, partner dose 0.02 µM) | 47.6 | 53.5 | 100 | 37.4 | 91.2 | 68.5 | 60 | 70.9 | 131 | 67 | 46.9 | 27.3 | 42.4 | 58.9 | 111 | 50.2 | 66 | 74.2 | 61.4 | 40.8
3 | C/C(O)=C(\C#N)C(=O)Nc1cc(Br)ccc1Br + O=C(Oc1ccc([N+](=O)[O-])cc1)N1CCC(C(O)(c2ccc3c(c2)OCO3)c2ccc3c(c2)OCO3)CC1 [JZL184] (first compound 10 µM, partner dose 5 µM) | 98.4 | 96.2 | 102 | 123 | 94.3 | 90.6 | 82.1 | 90.4 | 96.5 | 81.8 | 95.7 | 94.1 | 86.2 | 84 | 83.1 | 87.9 | 68.5 | 86 | 102 | 84.3
4 | CNC(=O)c1cc(Oc2ccc(NC(=O)Nc3ccc(Cl)c(C(F)(F)F)c3)cc2)ccn1 [sorafenib] + C[As](C)SC[C@H](NC(=O)CC[C@H](N)C(=O)O)C(=O)NCC(=O)O [Darinaparsin] (first compound 2 µM, partner dose 2 µM) | 59.9 | 71.8 | 87.5 | 72.5 | 104 | 72.9 | 73.8 | 63.3 | 95.1 | 36.6 | 70 | 77.1 | 86.1 | 44.4 | 87.9 | 77.6 | 56.2 | 74 | 59.3 | 59.4
5 | Cn1cnc2c(F)c(Nc3ccc(Br)cc3Cl)c(C(=O)NOCCO)cc21 [selumetinib] + N.N.[Cl][Pt][Cl] [cisplatin] (first compound 0.075 µM, partner dose 8 µM) | 77.6 | 71.8 | 90.1 | 57.4 | 98.1 | 85.4 | 106 | 70.7 | 91.9 | 69.4 | 87.8 | 86.4 | 48 | 85 | 92.4 | 62.4 | 71.7 | 66.8 | 89.1 | 58
6 | Cn1sc(=O)n(Cc2ccccc2)c1=O + N.N.[Cl][Pt][Cl] [cisplatin] (first compound 2 µM, partner dose 8 µM) | 95.3 | 92 | 83.7 | 87.3 | 47.5 | 91.6 | 91.6 | 110 | 66.1 | 75.9 | 58.3 | 76.2 | 86.7 | 105 | 76.2 | 94.1 | 84 | 82.3 | 92.6 | 76.4
7 | CC(C)(C)c1cnc(CSc2cnc(NC(=O)C3CCNCC3)s2)o1 + Cc1cc(SCc2sc(-c3ccc(C(F)(F)F)c(F)c3)nc2C)ccc1OCC(=O)O [GW0742] (first compound 0.05 µM, partner dose 10 µM) | 101 | 105 | 97.8 | 61.2 | 76.2 | 104 | 106 | 89.9 | 66.4 | 86.8 | 68.1 | 78.8 | 93.5 | 84.2 | 115 | 71.6 | 84.9 | 96.8 | 73.5 | 84.8
8 | Cc1ccc(NC(=O)c2cccc(N(C)C)c2)cc1NC(=O)c1ccc(O)cc1 + O=C(Oc1ccc([N+](=O)[O-])cc1)N1CCC(C(O)(c2ccc3c(c2)OCO3)c2ccc3c(c2)OCO3)CC1 [JZL184] (first compound 10 µM, partner dose 5 µM) | 104 | 96.6 | 96.5 | 126 | 119 | 88.9 | 81.9 | 101 | 74.3 | 102 | 101 | 98.7 | 98.1 | 100 | 109 | 91.7 | 105 | 99.2 | 78.1 | 80.3
9 | O=C(Nc1cc(C(F)(F)F)cc(C(F)(F)F)c1)c1cc(Cl)ccc1O + Cn1cc(C2=C(c3cn(C4CCN(Cc5ccccn5)CC4)c4ccccc34)C(=O)NC2=O)c2ccccc21 [Enzastaurin] (first compound 0.08 µM, partner dose 4 µM) | 86.3 | 97.4 | 86.9 | 75.9 | 111 | 89.2 | 124 | 126 | 77.2 | 104 | 75.9 | 77.7 | 130 | 104 | 118 | 80.4 | 143 | 107 | 66.4 | 139
